# Among all 310,000 compounds or so, about 14,000 (4.5%) showed an effect of 50% or more. The effect is printed as a negative number. Some of the results follow.
# Molecular target: human ether-à-go-go-related gene (hERG) potassium channel (human, UniProt Q12809)
# Assay: primary screen, population patch clamp on CHO cells stably expressing hERG
# 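Also: peak tail current of the secondary pulse compared with the same well before compound.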
# Sequence of human ether-à-go-go-related gene (hERG) potassium channel (Q12809 whole entry, looked up): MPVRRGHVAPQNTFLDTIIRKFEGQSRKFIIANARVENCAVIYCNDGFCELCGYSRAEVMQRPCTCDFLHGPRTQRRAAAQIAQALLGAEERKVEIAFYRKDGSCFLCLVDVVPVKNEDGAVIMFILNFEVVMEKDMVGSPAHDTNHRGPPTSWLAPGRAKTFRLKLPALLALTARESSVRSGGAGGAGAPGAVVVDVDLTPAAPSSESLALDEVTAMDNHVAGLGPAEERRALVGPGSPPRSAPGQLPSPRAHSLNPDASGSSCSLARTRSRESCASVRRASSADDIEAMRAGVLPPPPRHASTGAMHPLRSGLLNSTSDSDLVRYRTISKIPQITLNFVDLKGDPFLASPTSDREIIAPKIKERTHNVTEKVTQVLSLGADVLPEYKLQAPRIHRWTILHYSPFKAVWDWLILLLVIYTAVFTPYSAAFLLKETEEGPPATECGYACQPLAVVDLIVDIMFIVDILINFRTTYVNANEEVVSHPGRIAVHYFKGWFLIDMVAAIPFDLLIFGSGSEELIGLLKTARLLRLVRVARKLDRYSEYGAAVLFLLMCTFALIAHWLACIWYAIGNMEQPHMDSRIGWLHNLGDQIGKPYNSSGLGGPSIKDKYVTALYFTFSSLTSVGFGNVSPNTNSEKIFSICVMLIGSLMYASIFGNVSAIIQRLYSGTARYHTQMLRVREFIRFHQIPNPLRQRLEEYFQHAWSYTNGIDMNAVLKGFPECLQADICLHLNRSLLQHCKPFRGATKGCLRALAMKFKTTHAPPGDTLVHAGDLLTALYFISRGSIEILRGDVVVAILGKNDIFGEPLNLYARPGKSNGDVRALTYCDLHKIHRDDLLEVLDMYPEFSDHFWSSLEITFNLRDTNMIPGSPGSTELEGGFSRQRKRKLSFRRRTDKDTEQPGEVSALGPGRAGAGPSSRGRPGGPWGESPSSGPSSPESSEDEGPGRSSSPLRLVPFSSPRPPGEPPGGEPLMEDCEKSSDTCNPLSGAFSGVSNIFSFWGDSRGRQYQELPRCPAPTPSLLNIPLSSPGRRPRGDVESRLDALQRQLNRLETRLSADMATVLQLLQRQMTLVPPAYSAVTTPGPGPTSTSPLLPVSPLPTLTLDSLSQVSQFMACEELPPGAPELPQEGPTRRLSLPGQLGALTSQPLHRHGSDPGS
row,Structure (SMILES),"hERG current change (%, negative = inhibition) at 10uM [%]"
1,CC(C)CCN(C(=O)Cc1ccccc1F)c1c(N)n(Cc2ccccc2)c(=O)[nH]c1=O,13.1
2,N#C/C(=C(/O)COC(=O)c1ccc(Cl)c(S(=O)(=O)N2CCOCC2)c1)c1nc2ccccc2[nH]1,-0.927
3,CCOC(=O)N1CCN(C(=O)c2cccc(OC)c2OC)CC1,-0.263
4,COc1ccc(OCC(=O)NNC(=O)Nc2cccc(Cl)c2)cc1,32
5,O=c1n(Cc2ccccc2)nc2n1-c1ccccc1SC2,-5.34
6,CSCCC(NS(=O)(=O)c1ccc(Cl)cc1)C(=O)OCC(=O)N1CCCc2ccccc21 (centres unmarked),-5.26
7,CCc1nnc(NC(=O)CN2CCN(S(C)(=O)=O)CC2)s1,-2.78
8,O=C(CSc1nnc(CNC(=O)c2ccco2)o1)Nc1nc2ccccc2s1,16.1
9,CC1(C(=O)N/N=C/c2ccccc2)CC1(Br)Br (centres unmarked),1.94
10,Cc1ccc(/C(N)=N/OC(=O)c2ccco2)cc1,21.1
11,Cc1nn(Cc2ccc(Cl)cc2)c(C)c1N,11.1
12,CCc1ccc(NCCC(=O)c2ccc(Br)cc2)cc1,49.5
13,CC(C)OCCCNC(=O)NC(=O)c1ccc(Cl)cc1,-6.21
14,Cc1ccc(-c2nc(S(=O)(=O)c3ccc(C)cc3)c(N(C)C)o2)cc1,4.08
15,O=C(CCC(=O)N(CC(=O)NC1CCCCC1)c1ccc(F)cc1)Nc1ccccn1,-0.471
16,COCCOC(=O)c1c(NC(=O)CN2c3ccccc3CC2C)sc(C(N)=O)c1C (centres unmarked),9.89
17,CC(=O)c1ccc(NC(=S)N2CCN(CCO)CC2)cc1,13.1
18,CCc1nnc(NC(=O)CN2C(=O)/C(=C/c3cc(OC)c(OC)c(OC)c3)SC2=S)s1,-0.87
19,CCOC(=O)C1CCN(C(=O)CCc2nnc3ccc(N4CCN(C)CC4)nn23)CC1,16.7

row,Structure (SMILES),"hERG current change (%, negative = inhibition) at 10uM [%]"
1,C#CCOCCOCCOCCNc1nc(N2CCN(C(=O)Cn3cc(CCCC[NH3+])nn3)CC2)nc(N2CCN(C(=O)Cn3cc(CCCC[NH3+])nn3)CC2)n1.[Cl-],9.34
2,CC(OC(=O)Cn1cnc2c1c(=O)n(C)c(=O)n2C)C(=O)NCc1ccccc1 (centres unmarked),3.36
3,COC(=O)c1ccccc1NC(=O)CSCC(=O)Nc1ccccc1OC,-6.11
4,Cc1cc(NC(=O)CCN2C(=O)/C(=C/c3ccccc3Cl)SC2=S)no1,9.1
5,N/C(=N\OC(=O)CCCN1C(=O)c2ccccc2C1=O)c1ccc(Br)cc1,-6.47
6,CCc1ccc(CCC(=O)Nc2nc(CC(C)=O)ns2)o1,19
7,COc1ccc2c(c1)cc1n2CCN2CCCN=C12.Cl,-51.6
8,Cc1cccc2cc(C#N)c(SCC(=O)NCc3cccs3)nc12,8.08
9,O=C(Nc1ccccc1[N+](=O)[O-])c1cccnc1Cl,17.2
10,CCN(C(=O)COC(=O)c1ccc(C=O)cc1)c1c(N)n(Cc2ccccc2)c(=O)[nH]c1=O,11
11,Cc1cc(C(=O)Nc2ccc(Br)cn2)sc1C,7.37
12,Cc1ccc(/C=N/Nc2ccc(C(=O)O)cc2)o1,-6.29
13,Cc1sc2ncn(CC(=O)NCC(=O)N(C)Cc3ccccc3)c(=O)c2c1C,0.854
14,CC(C)Cn1c(C23CC4CC(CC(C4)C2)C3)n[nH]c1=S,4.7
15,CN(C)CCn1c2c(c(SCC(=O)Nc3ccccc3C(F)(F)F)nc1=O)CCCC2,-18.4
16,CC1=CC(=O)O[C@@H]1[C@@]1(C)C[C@H]2OC(=O)C[C@H]3[C@@H](C)C(=O)C(O)=C1[C@@]23CO,9.67
17,CC(CN1CCOCC1)OC(=O)c1ccc(Cl)cc1Cl.Cl (centres unmarked),-1.83
18,Cc1ccc(-c2nc(NC(=O)CSc3cc(C)c4ccccc4n3)ns2)cc1,12.5
19,CC(=O)Cn1cnc2c(cnn2-c2ccccc2)c1=O,13.4

row,Structure (SMILES),"hERG current change (%, negative = inhibition) at 10uM [%]"
1,O=C(c1ccc(OC2CCN(CCc3ccccc3)CC2)cc1)N1CCCCC1CCCO (centres unmarked),-11.4
2,CN1c2ccccc2C(C)(C)[C@]12C=Cc1cc(O)ccc1O2,4.75
3,COc1ccc(C2=NN(CC(=O)Nc3ccccc3C)C(=O)CC2)cc1,-33.1
4,Cc1ccccc1NC(=O)CN1CCC(C(=O)c2ccc3c(c2)OCCO3)CC1,-44.5
5,Cc1cc(NC(=O)COC(=O)c2cccc(OCc3ccccc3)c2)no1,32.1
6,CC(O)c1cccc(NC(=O)CCC(=O)O)c1 (centres unmarked),-5.85
7,Cc1cc(C)c(C(=O)CN2C(=O)C(=O)N(C3CCCC3)C2=O)cc1C,21
8,O=C(NC1CC1)C1=C[C@@H](C2CC2)C[C@@H](OCCCCO)O1,-4.14
9,COc1ccc(C(=O)NCc2cccnc2)cc1,-1.7
10,c1ccc(C2CC(c3cccs3)=NN2c2ccccc2)cc1 (centres unmarked),11.9
11,Cc1cc(NC(=O)CSc2nnc(-c3ccc(S(=O)(=O)N4CCCC4)cc3)n2C)no1,3.78
12,Cn1cccc1/C=C1\SC(=O)N(CC(=O)Nc2ccc(F)cc2)C1=O,15.1
13,CCOc1ccc(S(=O)(=O)N2CCN(S(=O)(=O)c3ccc(C(C)=O)cc3)CC2)cc1,0.493
14,Cc1ccc(NC(=O)C2CC(=O)Nc3nncn32)cc1 (centres unmarked),14.4
15,CC(=O)N1CCOc2ccc(S(=O)(=O)N3CCC(C(=O)Nc4cc(C)ccc4C)CC3)cc21,-9.95
16,CCOC(=O)c1c(C)c(C(=O)NCCCN2CCCC2=O)c(C)n1CC,2.13
17,O=C(NC1CCCCC1)C1CCCN(S(=O)(=O)c2ccc(F)cc2)C1 (centres unmarked),-10.7
18,CCC1=[N+](CC(=O)c2ccc(C)cc2)CCn2cccc21.[Br-],17.8

# — PMC4336329 (PLoS ONE, 2015)
